Experimental data reported in PubChem BioAssay (NCATS).
Where “and” joins values, the source holds several entries; their conditions need not be identical. Equal entries are not always repeated. Inconclusive results, whose numbers are uncertain, are shown with a selection of clear calls. A potency beside an inconclusive call is a rough fit, not a confirmed value. Calls of active or inactive are those of the source. Calls follow the shape of the dose curve; as a rule, active = well fitted curve in the direction sought with a large enough effect; inconclusive = small, poorly fitted or top-dose-only effect, or another doubt; inactive = no such curve, though single readings can be large; an effect the other way counts as inactive or inconclusive.

Tests used:
[1] = Viability qHTS for spleen associated tyrosine kinase inhibitor (SYKi) naive MV4-11 cells (AID 1963823); conditions: MV4-11 AML viability, CellTiter-Glo luminescence, 72 h; viability (% of control): at 45 µM (top of the series); also: nearly all actives have a fitted effect of over 40% in size
Method in brief: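 In this viability screen, compounds acted on SYK inhibitor naive MV4-11 cells for three days (72 hr, 37 C). Remaining viable cells were measured by CellTiter-Glo luminescence following a 10 min room-temperature development.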

[2] = Quantitative highthroughput screen to assess conditional lethalithy of NOMO1 cells grown in RPMI1640 with untreated serum (RPMI+s) (AID 1963876); conditions: NOMO1 AML cells in RPMI+serum, CellTiter-Glo viability, 48 h; viability: at 45.8 µM (top of the series); also: nearly all actives have a fitted effect of over 35% in size;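 as to Viability: 100% = DMSO wells and 0% = empty wells without cells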
Method in brief: (§1)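 Each medium arm—HPLM with 10% dialyzed FBS, or RPMI1640 with 5 mM glucose and 10% untreated or dialyzed FBS—was screened against an 11-point, 3-fold compound titration for 48 h at 37 °C, with CellTiter-Glo luminescence as endpoint.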

[3] = Quantitative highthroughput screen to assess conditional lethalithy of NOMO1 cells grown in RPMI1640 with dialyzed fetal bovine serum (RPMI+ds) (AID 1963877); also: nearly all actives have a fitted effect of over 30% in size;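 as to Viability: 100% = DMSO control wells and 0% = empty wells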
Method in brief: as §1

[4] = Quantitative highthroughput screen to assess conditional lethalithy of NOMO1 cells grown in Human Plasma-Like Medium with dialyzed fetal bovine serum (HPLM+ds) (AID 1963878); conditions: NOMO1 AML cells in HPLM+ds, CellTiter-Glo viability, 48 h; viability: at 45.8 µM (top of the series); also: nearly all actives have a fitted effect of over 35% in size
Method in brief: as §1

[5] = Quantitative highthroughput screen to assess conditional lethalithy of P12 Ichikawa cells grown in Human Plasma-Like Medium with dialyzed fetal bovine serum (HPLM+ds) (AID 1963879); conditions: Potency: viability; also: nearly all actives have a fitted effect of over 35% in size
Method in brief: as §1

[6] = Quantitative highthroughput screen to assess conditional lethalithy of P12 Ichikawa cells grown in RPMI1640 with dialyzed fetal bovine serum (RPMI+ds) (AID 1963880); conditions: Potency: P12-Ichikawa viability; also: nearly all actives have a fitted effect of over 35% in size;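 as to Viability: 100% = DMSO wells and 0% = empty wells on each plate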
Method in brief: as §1

[7] = Quantitative highthroughput screen to assess conditional lethalithy of SEM cells grown in Human Plasma-Like Medium with dialyzed fetal bovine serum (HPLM+ds) (AID 1963882); also: nearly all actives have a fitted effect of over 35% in size
Method in brief: as §1

[8] = Quantitative highthroughput screen to assess conditional lethalithy of SEM cells grown in RPMI1640 with unreated serum (RPMI+s) (AID 1963883); conditions: SEM B-ALL cells, CellTiter-Glo viability, 48 h; viability: at 45.8 µM (top of the series); also: nearly all actives have a fitted effect of over 35% in size;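 as to Viability: 100% = DMSO wells and 0% = empty wells without cells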
Method in brief: as §1

[9] = Cellular viability qHTS for adrenocortical cancer (ACC) cell line SW-13 (AID 1963989); conditions: SW-13 ACC cells viability, CellTiter-Glo, 48 h; activity (max response): stronger effect = lower value; also: nearly all actives have a fitted effect of over 65% in size;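 as to activity (max response): cells grown in serum-free medium with ITS supplement; % is scaled to controls: 0 for no effect and ±100 for the full control effect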
Method in brief: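 Luminescent ATP read-out (CellTiter-Glo, 20 min at room temperature) measured metabolically competent SW-13 cells after 48 h compound treatment. Final concentrations spanned up to 46 uM; bortezomib served as positive control.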

[10] = Quantitative highthroughput screen to assess conditional lethalithy of SEM cells grown in RPMI1640 with dialyzed fetal bovine serum (RPMI+ds) (AID 1963884); conditions: SEM B-ALL cells, RPMI+dialyzed FBS, CellTiter-Glo viability, 48 h; viability: at 45.8 µM (top of the series); also: nearly all actives have a fitted effect of over 35% in size;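 as to Viability: 100% = DMSO control wells and 0% = empty wells without cells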
Method in brief: as §1

[11] = Cellular viability qHTS for adrenocortical cancer (ACC) cell line NCI-H295R (AID 1963990); conditions: CellTiter-Glo ATP luminescence, 48 h; activity change, negative = viability loss: at 46.1 µM (top of the series); also: nearly all actives have a fitted effect of over 60% in size;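 as to activity change, negative = viability loss: 0% = DMSO only wells and -100% = full killing with cytotoxic reference compound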
Method in brief: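 IC50 and maximal efficacy derive from four-parameter logistic modelling of titration curves, with reads scaled between DMSO-only wells (0%) and doxorubicin hydrochloride (100% inhibition). Compounds spanned up to 46 uM over 48 h.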

[12] = Quantitative highthroughput screen to assess conditional lethalithy of P12 Ichikawa cells grown in RPMI1640 with untreated serum (RPMI+s) (AID 1963881); conditions: Potency: viability; also: nearly all actives have a fitted effect of over 35% in size;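 as to Viability: 100% = DMSO wells and 0% = empty wells without cells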
Method in brief: as §1
Potency is read from the fitted curve at half-maximal effect; tags tell the direction and shape of the fitted curve.

Compound | Potency [1] | Potency [2] | Potency [3] | Potency [4] | Potency [5] | Potency [6] | Potency [7] | Potency [8] | activity (max response) [9] | Potency [10] | Potency [9] | Potency [11] | Potency [12]
O=C(CN1C(=O)C2(CCCC2)NC[C@H]1c1cc(F)cc(F)c1)Nc1ccc2c(c1)C[C@@]1(C2)C(=O)Nc2ncccc21 | inactive | inconclusive: 26.4 µM [cytotoxic, single point] | inconclusive: 33.2 µM [cytotoxic, single point] | active: 20.9 µM | inactive | inactive | inactive | inactive | inactive: -4.31% | – | – | – | –
CON(C)C(=O)N1N=C(c2cc(F)ccc2F)S[C@@]1(CCCN)c1ccccc1 | active: 9.2 nM and inconclusive: 3.7 nM [cytotoxic, full curve] | active: 0.0209 µM | active: 0.0234 µM | inconclusive: 0.0234 µM [cytotoxic, full curve] | – | active: 0.0331 µM | active: 0.0052 µM | active: 0.0117 µM | – | inconclusive: 0.0132 µM [cytotoxic, full curve] | – | – | –
CN(C)CCCN1c2ccccc2CCc2ccc(Cl)cc21 | inconclusive: 9.44 µM [cytotoxic, partial curve, poor fit] and active: 16.6 µM | inconclusive: 23.5 µM [cytotoxic, partial curve, poor fit] | inconclusive: 16.6 µM [cytotoxic, partial curve] | inconclusive: 10.5 µM [cytotoxic, full curve] | – | inconclusive: 0.0012 µM [rising, full curve] | inconclusive: 29.6 µM [cytotoxic, single point] | inconclusive: 29.6 µM [cytotoxic, single point] | – | inconclusive: 26.4 µM [cytotoxic, single point] | inconclusive: 18.4 µM [cytotoxic, single point] and inconclusive: 31.6 µM [cytotoxic, single point] | inconclusive: 29.1 µM [cytotoxic, single point] | –
COc1cc(S(C)(=O)=O)ccc1Nc1nc2ccc(-c3ccc(NC(=O)[C@H](C)c4ccc(F)cc4)cc3)cn2n1 | inconclusive: 0.417 µM [cytotoxic, full curve] | inconclusive: 0.933 µM [cytotoxic, full curve, poor fit] | inconclusive: 1.05 µM [cytotoxic, full curve, poor fit] | – | – | inconclusive: 0.831 µM [cytotoxic, full curve] | inconclusive: 0.831 µM [cytotoxic, full curve] | inconclusive: 1.05 µM [cytotoxic, full curve] | – | inconclusive: 0.933 µM [cytotoxic, full curve] | – | inconclusive: 0.631 µM [cytotoxic, full curve] | inconclusive: 0.831 µM [cytotoxic, full curve]
Cc1ncc([N+](=O)[O-])n1CC(C)O (stereo not drawn) | inactive | inactive | inactive | – | – | – | inconclusive: 37.2 µM [cytotoxic, single point] | inconclusive: 33.2 µM [cytotoxic, single point] | – | inconclusive: 29.6 µM [cytotoxic, single point] | – | – | –
COc1cccc2c(NCc3ccccc3)nc(-n3c(N)nc4ccccc43)nc12 | active: 2.35 µM | inconclusive: 33.2 µM [cytotoxic, single point] | inconclusive: 29.6 µM [cytotoxic, single point] | inconclusive: 26.4 µM [cytotoxic, single point] | – | – | – | – | – | active: 14.8 µM | – | – | active: 16.6 µM
O=c1cc(-c2ccccc2)oc2cc(O)cc(O)c12 | inconclusive: 14.8 µM [cytotoxic, partial curve] | inconclusive: 37.2 µM [cytotoxic, single point] | inconclusive: 29.6 µM [cytotoxic, single point] | – | – | – | active: 16.6 µM | active: 11.8 µM | – | – | inconclusive: 35.5 µM [cytotoxic, single point] | inconclusive: 35.5 µM [cytotoxic, single point] | –
CN(C)Cc1c(C(=O)NCCOc2ccc(C(=O)NO)cc2)oc2ccccc12 | active: 326 nM and active: 296 nM | active: 4.18 µM | active: 4.18 µM | – | active: 2.35 µM | active: 2.96 µM | – | – | – | active: 1.48 µM | active: 1.26 µM | – | –
O=C(NC1CC1)c1cccc(-c2ccc3c(NC(=O)C4CC4)n[nH]c3c2)c1 | inconclusive: 4.68 µM [cytotoxic, full curve] | active: 23.5 µM | inconclusive: 23.5 µM [cytotoxic, partial curve] | – | – | – | – | active: 14.8 µM | – | – | – | – | –
COc1cc(N2CCC(N(C)C)CC2)ccc1Nc1ncc(Cl)c(Nc2ccccc2P(C)(C)=O)n1 | inconclusive: 92 nM [cytotoxic, full curve] and active: 66.1 nM | active: 2.63 µM | inconclusive: 2.34 µM [cytotoxic, full curve] | active: 1.05 µM | – | – | active: 0.467 µM | inconclusive: 0.588 µM [cytotoxic, full curve] | – | active: 0.524 µM | – | active: 8.91 µM | –
O=C1NC(O)CCN1[C@@H]1O[C@H](CO)[C@H](O)[C@H]1O (stereo partly drawn) | inactive | inconclusive: 37.2 µM [cytotoxic, single point] | inconclusive: 33.2 µM [cytotoxic, single point] | – | inactive | – | – | inactive | – | inactive | – | inactive | inactive
CNC(=O)c1c(-c2ccc(F)cc2)oc2cc(N(CCO)S(C)(=O)=O)c(C3CC3)cc12 | inactive | inconclusive: 10.5 µM [cytotoxic, full curve] | inconclusive: 8.33 µM [cytotoxic, full curve] | – | inconclusive: 2.96 µM [cytotoxic, full curve] | – | – | inconclusive: 2.35 µM [cytotoxic, partial curve] | – | – | – | inactive | –
NC(=NCc1ccccc1)NC(=O)c1nc(Cl)c(N)nc1N | active: 3.32 µM | inconclusive: 18.7 µM [cytotoxic, partial curve] | inconclusive: 18.7 µM [cytotoxic, partial curve] | – | inconclusive: 23.5 µM [cytotoxic, single point] | – | – | inconclusive: 13.2 µM [cytotoxic, partial curve] | – | – | inconclusive: 20 µM [cytotoxic, partial curve] | inconclusive: 35.5 µM [cytotoxic, single point] | inconclusive: 29.6 µM [cytotoxic, single point]
CCN(CC)CCCCNc1nc2cc(Cl)c(Cl)cc2nc1-c1ccc(-c2cccs2)s1 | inconclusive: 7.42 µM [cytotoxic, full curve] | inconclusive: 33.2 µM [cytotoxic, single point] | inconclusive: 33.2 µM [cytotoxic, single point] | – | inconclusive: 33.2 µM [cytotoxic, single point] | active: 26.4 µM | inconclusive: 33.2 µM [cytotoxic, single point] | inconclusive: 29.6 µM [cytotoxic, single point] | – | inconclusive: 37.2 µM [cytotoxic, single point] | inconclusive: 28.2 µM [cytotoxic, single point] | – | inconclusive: 26.4 µM [cytotoxic, single point]
COc1cc(Nc2c(C#N)cnc3cc(OCCCN4CCN(C)CC4)c(OC)cc23)c(Cl)cc1Cl | active: 944 nM and active: 1.3 µM and active: 1.18 µM | active: 7.43 µM | active: 8.33 µM | – | – | active: 5.26 µM | active: 1.66 µM | active: 1.87 µM | – | – | active: 4.61 µM and active: 2 µM | active: 4.61 µM and active: 3.55 µM | active: 4.69 µM
Cc1nc(-c2ccc(OCC(C)C)c(C#N)c2)sc1C(=O)O | inactive | inactive | inactive | – | – | inactive | – | inactive | – | inactive | – | – | inactive
Clc1ccc(C(Cn2ccnc2)OCc2ccc(Sc3ccccc3)cc2)c(Cl)c1 (stereo not drawn) | inconclusive: 7.42 µM [cytotoxic, full curve] | inconclusive: 11.8 µM [cytotoxic, full curve] | inconclusive: 16.6 µM [cytotoxic, partial curve] | – | inconclusive: 29.6 µM [cytotoxic, single point] | inconclusive: 29.6 µM [cytotoxic, single point] | – | inconclusive: 0.526 µM [cytotoxic, full curve, poor fit] | – | inactive | active: 31.6 µM | inconclusive: 35.5 µM [cytotoxic, single point] | inconclusive: 26.4 µM [cytotoxic, single point]
CN(Cc1cnc2nc(N)nc(N)c2n1)c1ccc(C(=O)N[C@@H](CCC(=O)O)C(=O)O)cc1 | active: 10.6 nM and active: 37.2 nM | inconclusive: 5.26 µM [cytotoxic, full curve] | inconclusive: 0.118 µM [cytotoxic, full curve] | inconclusive: 0.166 µM [cytotoxic, full curve] | – | – | – | – | – | – | – | active: 13 nM and active: 316 nM | inconclusive: 0.132 µM [cytotoxic, full curve]
